These results are taken from PubChem BioAssay AID1645887 (National Center for Advancing Translational Sciences (NCATS), 2021).

Values joined by “and” are separate entries in the source; they are usually repeats but may differ in a detail not shown here. Equal entries are not always repeated. The campaign covered roughly 16,000 compounds. About 40 (0.2%) were called active. About 1% were inconclusive and are not listed. The call rests on the fitted dose curve; in most records, active means well fitted activation curve with a large enough effect; inconclusive means small, poorly fitted or top-dose-only effect, or another doubt; inactive means no such curve, though single readings can be large or run the other way. The list shows a part of the results.
On the % scale 0 is the no-effect control and ±100 the full control effect.

Sequence of UniProt Q8WZA2 (Q8WZA2 whole entry, looked up): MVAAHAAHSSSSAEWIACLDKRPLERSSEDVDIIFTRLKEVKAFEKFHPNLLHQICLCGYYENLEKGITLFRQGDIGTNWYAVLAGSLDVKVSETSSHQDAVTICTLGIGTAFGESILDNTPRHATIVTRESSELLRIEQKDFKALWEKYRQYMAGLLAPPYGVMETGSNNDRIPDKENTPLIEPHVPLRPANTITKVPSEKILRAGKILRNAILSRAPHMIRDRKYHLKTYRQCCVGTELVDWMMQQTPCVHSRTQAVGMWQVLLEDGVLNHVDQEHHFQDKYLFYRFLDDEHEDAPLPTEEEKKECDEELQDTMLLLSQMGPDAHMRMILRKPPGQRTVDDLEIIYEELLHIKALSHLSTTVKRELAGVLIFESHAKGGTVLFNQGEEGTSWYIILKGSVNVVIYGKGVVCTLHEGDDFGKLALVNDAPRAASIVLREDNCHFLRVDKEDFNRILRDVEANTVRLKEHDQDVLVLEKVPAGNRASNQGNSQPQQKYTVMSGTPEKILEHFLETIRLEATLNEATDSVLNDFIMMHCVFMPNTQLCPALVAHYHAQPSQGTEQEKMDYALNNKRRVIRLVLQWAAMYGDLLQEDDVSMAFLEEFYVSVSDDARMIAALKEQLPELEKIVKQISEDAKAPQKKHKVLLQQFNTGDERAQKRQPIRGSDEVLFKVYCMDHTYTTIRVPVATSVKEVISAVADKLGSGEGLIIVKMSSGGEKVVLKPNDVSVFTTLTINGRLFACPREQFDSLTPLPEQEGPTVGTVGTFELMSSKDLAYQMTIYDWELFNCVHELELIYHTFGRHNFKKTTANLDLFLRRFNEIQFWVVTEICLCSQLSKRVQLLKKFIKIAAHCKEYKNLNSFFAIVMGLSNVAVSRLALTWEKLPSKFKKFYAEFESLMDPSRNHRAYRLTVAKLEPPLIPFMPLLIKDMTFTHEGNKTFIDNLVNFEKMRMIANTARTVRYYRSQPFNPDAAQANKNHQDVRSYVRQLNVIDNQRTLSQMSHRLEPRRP

This experiment deals with Rap guanine nucleotide exchange factor 4 (Homo sapiens) (UniProt Q8WZA2). Briefly: Validation qHTS for agonist of cAMP-regulated guanine nucleotide exchange factor 4 (EPAC2).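 Further: exchange makes BODIPY-GDP fluorescence drop when released from Rap1B; series mostly up to about 150 µM.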 The note with it: EPAC2 Rap1B BODIPY-GDP exchange, fluorescence; activation: stronger effect = higher value. The procedure, abridged:
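Fluorescent exchange assay: 100 nM EPAC2 with 250 nM RAP1B-BODIPY-GDP and 50 uM GDP; compound added, 5 min at room temperature, then read (ex 480/em 540 nm) every 5 min for 30 min. Normalized to 6.5 mM cAMP agonist control.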
Turning to `O=C1C[C@H]2C=CCc3cccc(c32)CN1Cc1ccc(F)cc1`, the activation was inactive: -12.9%. As for `COc1ccc(Oc2ncc3nc(-c4cccs4)c(=O)n(C)c3n2)cc1`, the figure is inactive: 9.56%; as for `CN(C)C(=O)c1ccc(-c2cc(NCc3ccccc3)ncn2)cc1`, inactive: -9.11%. The figure for `O=S(=O)(c1ccccc1)N1CCC2(CCN(c3ccccc3)CC2)CC1` is inactive: 6.19%. As for `O=C(O)CCCC[C@@H]1CCSS1`, the figure is inactive: -15.4%. Turning to `COc1ccccc1CNc1ncnc2ccc(-c3ccccc3OC)cc12`, the activation is inactive: -2.42%. As for `CN1[C@H](CC(=O)c2ccccc2)CCC[C@H]1C[C@@H](O)c1ccccc1`, the figure is inactive: -1.27%; as for `Cc1[nH]c2ccccc2c1/C=C/c1nccc2ccccc12`, inactive: -23.1%. For `COc1ccc(CN2C[C@H](Sc3nc4ccccc4[nH]3)C[C@H]2C(=O)N(C)C)c2ccccc12`, the activation is inactive: -1.61%. Take `C=C[C@@H]1c2cc(C)ccc2N(S(=O)(=O)c2ccc(C)cc2)[C@H](c2ccccc2)C1(C#N)S(=O)(=O)c1ccccc1` (some centres undefined): the activation was inactive: 0.0524%. The figure for `CS(=O)(=O)N1CCC2(CC1)CN(Cc1ccccc1)C2` is inactive: -11.1%; for `COc1ccc(C(=O)N2CCC[C@@]3(CCN(c4ncccn4)C3)C2)cc1` it is inactive: -15.1%; for `Cc1cccc(Nc2ccncc2S(=O)(=O)NC(=O)NC(C)C)c1` it is inactive: 0.863% and inactive: -23.6%.

As to `O=c1c(CCc2ccccc2)nc2cnc(Nc3ccccc3)nc2n1Cc1cccs1`, the activation was inactive: -3.04%. As for `O=C(c1cc(C(F)(F)F)cc(C(F)(F)F)c1)N1CCC2(CCCN(c3ncccn3)C2)CC1`, the figure is inactive: -15%; as for `CO[C@H]1[C@H](NC(=O)c2ccco2)c2ccccc2C12CCN(Cc1ccc3cccc(F)c3n1)CC2`, inactive: -23.4%. `COc1ccc(Oc2ncc3nc(C)c(=O)n(Cc4ccc(F)cc4)c3n2)cc1`: the activation was inactive: -43.6%. The figure for `Cc1c(C(=O)N2CCCCC2)sc2ncnc(NCCc3ccccn3)c12` is inactive: -1.64%. Consider `Cn1c(=O)c(-c2ccccc2)nc2cncnc21`, for which the activation is inactive: -1.19%. The figure for `Cc1c(C(=O)NCc2cccc(F)c2)sc2ncnc(NCC3CCCO3)c12` (centres undefined) is inactive: -12.3%; for `CN(C)Cc1ccccc1-c1nc(NC2CC2)c2ccccc2n1` it is inactive: -1.93%; for `COc1ccccc1-c1cncnc1NCc1cccnc1` it is inactive: -13.9%. Take `COC(=O)CC1C(C)(C)C(=O)C2CC3C4=CC(=O)OC(c5ccoc5)[C@]4(C)CCC3[C@@]1(C)C2=O` (some centres undefined): the activation is inactive: -20.9%. The figure for `CNc1nc(-c2ccc(N(C)C)cc2)nc2ccccc12` is inactive: -5.46%.

On to `COc1ccc(CN2[C@@H](CC(C)=O)c3cc(C(F)(F)F)ccc3S2(=O)=O)cc1`, for which the activation was inactive: -8.31%. As for `C=C1C[C@@]23CC4C5[C@@]6(C)C[C@H](O)C[C@@]57C2[C@H](O)[C@@H]1[C@H](O)[C@H]3[C@H]7N4C6`, the activation is inactive: -15.2%.

`CCCCCCCCCCCCN1C/C(=C\C(=O)OCC)c2ccccc2S1(=O)=O`: the activation was inactive: -26.3%. Consider `CC(=O)N1CCC2(CCCN(C(c3ccccc3)c3ccccc3)C2)CC1`, for which the activation is inactive: -24.3%. For `O=C1Nc2ccc(I)cc2/C1=C/c1cc(Br)c(O)c(Br)c1`, the activation is inactive: -14.3% and inactive: -22.2% and inactive: -47.2%.

Take `CC1(S(=O)(=O)O)CC(=O)c2ccccc2C1=O` (centres undefined): the activation is inactive: 3.25%.

As for `COc1ncc2ncc(=O)n(C3CC3)c2n1`, the activation is inactive: -9.5%.

Regarding `NCCNC(=O)Cc1ccc(NC(=O)Cc2ccc(Nc3ncnc4c3ncn4[C@@H]3O[C@H](CO)[C@@H](O)[C@H]3O)cc2)cc1`, the activation was inactive: 13%.

As for `C[C@]12CC[C@H]3[C@@H](CCC4=CC(=O)CC[C@@]43C)[C@@H]1CC[C@@H]2C(=O)CO`, the activation is inactive: 5.9%. As for `O=C(O)CCCCC1SCC2NC(=O)NC21` (centres undefined), the figure is inactive: -13.9%; as for `O=C1CSC2(CCN(CCCN3c4ccccc4Sc4ccc(Cl)cc43)CC2)N1`, inactive: -24.2%. The figure for `Cc1ccc2c(c1)C(=O)[C@@]1(O)CCN(c3ccccc3)C1=N2` is inactive: -107%. The figure for `C=N[C@@H](C(=O)N[C@@H]1C(=O)N2[C@@H]1SC(C)(C)[C@@H]2C(=O)O)c1ccccc1` is inactive: -10.3%; for `CC[N+](CC)(CC(=O)Nc1c(C)cccc1C)Cc1ccccc1` it is inactive: 4.86% and inactive: 4.25%; for `COc1cc(NS(=O)(=O)c2ccc(N)cc2)nc(OC)n1` it is inactive: -21.4% and inactive: -14.5%. For `O=C1CCC[C@@H]2C[C@@]3(C[C@@H]4CCN1[C@H]24)Nc1cc(Cl)c(Cl)cc1NC3=NCc1ccccc1`, the activation is inactive: -4.22%. Consider `COc1cc2ccc(=O)oc2cc1O`, for which the activation was inactive: 13.8% and inactive: -3.8%. For the compound `CC1(C)O[C@@H]2[C@@H](CO[C@@]3(COS(N)(=O)=O)OC(C)(C)O[C@@H]23)O1`, the activation is inactive: -6.8%.

`O=c1c(-c2ccc(F)cc2)nc2cnc(N3CCNCC3)nc2n1-c1ccccc1`: the activation is inactive: -13.7%. As for `Cc1cccc(CNc2cc(-c3ccc(C(=O)N(C)C)cc3)ncn2)c1`, the figure is inactive: -23.4%; as for `O=C1N=C2SCCN2C(=O)C1Cc1ccc(Cl)cc1` (centres undefined), inactive: -4.71%; as for `c1ccc(CN(CCN(Cc2ccccn2)Cc2ccccn2)Cc2ccccn2)nc1`, inactive: 11.4%. As for `COC(=O)c1cc(CNC(=O)c2ccccc2F)cc(NC(=O)c2ccccc2OC)c1`, the activation was inactive: -3.85%. For the compound `CN(C)c1ncc2nc(-c3cccc(C#N)c3)c(=O)n(C[C@H]3CCCO3)c2n1`, the activation is inactive: -0.949%. As for `CNc1nc(-c2cccnc2)nc2ccccc12`, the figure is inactive: 9.28%; as for `CNC(=O)[C@H]1O[C@@H](n2cnc3c(NCc4ccc(I)cc4)nc(Cl)nc32)[C@H](O)[C@@H]1O`, inactive: -60.1%. The figure for `CCNc1ncc2nc(C)c(=O)n(CCc3ccccc3)c2n1` is inactive: 0.786%; for `N[C@H](Cn1ccc(=O)n(Cc2ccccc2C(=O)O)c1=O)C(=O)O` it is inactive: -2.85%; for `CC(C)Cn1cnc2c(N)nc3ccccc3c21` it is inactive: -19.6%. In the case of `O=C(NCCc1nnc2n1CCN(CC1CC=CCC1)CC2)c1ccc(F)cc1` (centres undefined), the activation was inactive: 4.76%.
